# Source: the supplement of paper PMC10369915
# This is one part of the list. Rule as the data show it: active = 3.2 or more and inactive = the rest. Only a few entries rise above the background.
# B1: RHO_Y301_S297R (peptide)
# chain: KRAAIYNPVIY
# B2: RHO_Y301_YF (peptide)
# chain: KSAAIYNPVIF
# B3: RHOA_Y42_E47K (peptide)
# chain: TVFENYVADIK
# B4: RHOA_Y66_P71S (peptide)
# chain: AGQEDYDRLRS
# B5: RICTOR_Y835 (peptide)
# chain: KWHREYNSKYV
# B6: RICTOR_Y835_S837F (peptide)
# chain: KWHREYNFKYV
# B7: RIN1_Y681_P686S_YF (peptide)
# chain: FKEQGYHRLPS
# B8: RIN1_Y681_YF (peptide)
# chain: FKEQGYHRLPP
# B9: RIOK2_Y348_G349R (peptide)
# chain: EKAEVYRSENE
# B10: RIPOR2_Y316_V320M (peptide)
# chain: LEITWYPFDME
# B11: RITA1_Y109 (peptide)
# chain: SHTPSYCDESL
# B12: RLF_Y671 (peptide)
# chain: QDRDLYPCPGT
# B13: RNASE3_Y134 (peptide)
# chain: PGRRFYVVACD
# B14: RNASEH2A_Y206_L202S (peptide)
# chain: DSDTDYGSGYP
# B15: RNASEH2A_Y206_YF (peptide)
# chain: DLDTDYGSGFP
# B16: RNASEH2A_Y210_D205E (peptide)
# chain: EYGSGYPNDPK
# B17: RNASEH2A_Y210_YF (peptide)
# chain: DFGSGYPNDPK
# B18: RNF175_Y155_M159V (peptide)
# chain: FGVVGYLAIVF
# B19: RNF213_Y4141_V4146A (peptide)
# chain: KLLLKYSFHDA
# Biological target: SHP2 C-SH2 domain E139D
# Test: enrichment score (SH2-bound / input frequency) (ratio); bacterial display of known human phosphotyrosine sites (pTyr-Var adds point mutants) read by sequencing; higher = stronger binding; tyrosines were phosphorylated by kinases first
# Conditions: peptide library: pTyr-Var
# 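Also: displayed peptides selected on beads carrying the immobilized SH2 domain, with library peptides lacking any tyrosine serving as negative controls.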
row,Binder,enrichment score
1,B1,inactive: 0.803
2,B2,inactive: 1.13
3,B3,inactive: 1.11
4,B4,inactive: 0.427
5,B5,inactive: 1.89
6,B6,inactive: 2.31
7,B7,inactive: 0.965
8,B8,inactive: 0.86
9,B9,inactive: 0.678
10,B10,inactive: 1.13
11,B11,inactive: 0.637
12,B12,inactive: 0.726
13,B13,inactive: 0.66
14,B14,inactive: 0.487
15,B15,inactive: 0.661
16,B16,inactive: 0.49
17,B17,inactive: 0.602
18,B18,active: 3.28
19,B19,inactive: 2.13

# Biological target: SHP2 C-SH2 domain wild-type
# Test: as above
# Conditions: peptide library: pTyr-Var
row,Binder,enrichment score
1,B1,inactive: 0.744
2,B2,inactive: 0.861
3,B3,inactive: 0.841
4,B4,inactive: 0.573
5,B5,inactive: 1.41
6,B6,inactive: 2.24
7,B7,inactive: 0.843
8,B8,inactive: 0.758
9,B9,inactive: 0.522
10,B10,inactive: 1.16
11,B11,inactive: 0.621
12,B12,inactive: 0.616
13,B13,inactive: 0.471
14,B14,inactive: 0.454
15,B15,inactive: 0.578
16,B16,inactive: 0.433
17,B17,inactive: 0.611
18,B18,active: 4.83
19,B19,inactive: 2.11

# Biological target: SHP2 N-SH2 domain L43F
# Test: as above
# Conditions: peptide library: pTyr-Var
row,Binder,enrichment score
1,B1,inactive: 0.903
2,B2,inactive: 0.994
3,B3,inactive: 0.762
4,B4,inactive: 0.554
5,B5,inactive: 1.77
6,B6,inactive: 1.94
7,B7,inactive: 0.309
8,B8,inactive: 1.08
9,B9,inactive: 0.583
10,B10,inactive: 1.62
11,B11,inactive: 0.704
12,B12,inactive: 0.551
13,B13,inactive: 0.705
14,B14,inactive: 0.356
15,B15,inactive: 0.688
16,B16,inactive: 0.51
17,B17,inactive: 0.454
18,B18,active: 4.09
19,B19,inactive: 2.2

# Biological target: SHP2 N-SH2 domain T42A
# Test: as above
# Conditions: peptide library: pTyr-Var
row,Binder,enrichment score
1,B1,inactive: 0.748
2,B2,inactive: 2.22
3,B3,inactive: 0.773
4,B4,inactive: 0.524
5,B5,inactive: 1.66
6,B6,inactive: 1.94
7,B7,inactive: 0.807
8,B8,inactive: 0.789
9,B9,inactive: 0.456
10,B10,inactive: 1.52
11,B11,inactive: 0.576
12,B12,inactive: 0.503
13,B13,inactive: 0.747
14,B14,inactive: 0.315
15,B15,inactive: 0.501
16,B16,inactive: 0.378
17,B17,inactive: 0.571
18,B18,active: 3.75
19,B19,inactive: 1.84

# Biological target: SHP2 N-SH2 domain T52S
# Test: as above
# Conditions: peptide library: pTyr-Var
row,Binder,enrichment score
1,B1,inactive: 0.689
2,B2,inactive: 0.952
3,B3,inactive: 0.774
4,B4,inactive: 0.568
5,B5,inactive: 1.7
6,B6,inactive: 1.86
7,B7,inactive: 0.664
8,B8,inactive: 0.668
9,B9,inactive: 0.511
10,B10,inactive: 1.19
11,B11,inactive: 0.69
12,B12,inactive: 0.71
13,B13,inactive: 0.498
14,B14,inactive: 0.398
15,B15,inactive: 0.677
16,B16,inactive: 0.458
17,B17,inactive: 0.573
18,B18,active: 3.75
19,B19,inactive: 2.02

# Biological target: SHP2 N-SH2 domain wild-type
# Test: as above
# Conditions: peptide library: pTyr-Var
row,Binder,enrichment score
1,B1,inactive: 0.698
2,B2,inactive: 0.817
3,B3,inactive: 0.743
4,B4,inactive: 0.695
5,B5,inactive: 1.42
6,B6,inactive: 1.95
7,B7,inactive: 1.11
8,B8,inactive: 0.629
9,B9,inactive: 0.633
10,B10,inactive: 1.66
11,B11,inactive: 0.866
12,B12,inactive: 0.695
13,B13,inactive: 0.637
14,B14,inactive: 0.381
15,B15,inactive: 0.735
16,B16,inactive: 0.56
17,B17,inactive: 0.623
18,B18,active: 4.86
19,B19,inactive: 2.34
